From the supplement of paper PMC4604168 (melanoma cell lines)
The other results are listed elsewhere or left out. Single values are uncertain, as repeats are few or missing.

These compounds were tested on COLO792 (assay: cell count relative to DMSO control; melanoma cells; higher = more viable cells). Settings: library dose: low library concentration; 72 h.
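Also: cell number obtained by counting DAPI-stained nuclei in high-throughput microscope images with image analysis software, screen run in 1,536-well plates.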

Row | SMILES | cell count
1 | CS(=O)(=O)c1ccc(C(=O)Nc2ccc(Cl)c(-c3ccccn3)c2)c(Cl)c1 [vismodegib] + COc1ccc2c(c1)CCC1C2CCC2(C)C(NCCCCCCN3C(=O)C=CC3=O)CCC12 [U73122] (first compound 1 µM, partner dose 0.4 µM) | 104%
2 | NC1(c2ccc(-c3nc4ccn5c(=O)[nH]nc5c4cc3-c3ccccc3)cc2)CCC1 + Cn1cc(/C=C2\C(=O)Nc3cccnc32)c2ccccc21 [GW441756] (first compound 0.4 µM, partner dose 0.4 µM) | 69.4%
3 | C=C(c1ccc(C(=O)O)cc1)c1cc2c(cc1C)C(C)(C)CCC2(C)C [Bexarotene] + O=C(Nc1ccccc1)c1cc([N+](=O)[O-])ccc1Cl [GW9662] (first compound 2 µM, partner dose 2 µM) | 96.9%
4 | NC1(c2ccc(-c3nc4ccn5c(=O)[nH]nc5c4cc3-c3ccccc3)cc2)CCC1 + COC(=O)c1sccc1S(=O)(=O)Nc1ccc(Nc2ccccc2)cc1OC [GSK0660] (first compound 0.4 µM, partner dose 1 µM) | 76.9%
5 | CCCS(=O)(=O)Nc1ccc(F)c(C(=O)c2c[nH]c3ncc(Cl)cc23)c1F + O=C(O)C(=O)Nc1sc2c(c1C(=O)O)CCNC2 [TCS401] (first compound 0.08 µM, partner dose 1.66667 µM) | 110%
6 | CS(=O)(=O)c1ccc(C(=O)Nc2ccc(Cl)c(-c3ccccn3)c2)c(Cl)c1 [vismodegib] + O=C(O)C(=O)Nc1sc2c(c1C(=O)O)CCNC2 [TCS401] (first compound 1 µM, partner dose 1.66667 µM) | 94.1%
7 | C=C(c1ccc(C(=O)O)cc1)c1cc2c(cc1C)C(C)(C)CCC2(C)C [Bexarotene] + N#Cc1c(O)c2c(-c3ccc(-c4ccccc4O)cc3)csc2[nH]c1=O [A769662] (first compound 2 µM, partner dose 2 µM) | 112%
8 | C=C(c1ccc(C(=O)O)cc1)c1cc2c(cc1C)C(C)(C)CCC2(C)C [Bexarotene] + COc1ccc(-c2ccc3c(N4CCOCC4)nc(N4C[C@@H](C)O[C@@H](C)C4)nc3n2)cc1CO [KU0063794] (first compound 2 µM, partner dose 0.02 µM) | 99.9%
9 | CCCS(=O)(=O)Nc1ccc(F)c(C(=O)c2c[nH]c3ncc(Cl)cc23)c1F + COc1ccc(COc2ccc(Cc3cnc(N)nc3N)cc2OC)cc1 [GW2580] (first compound 0.08 µM, partner dose 1 µM) | 103%
